From PubChem BioAssay AID624296 (National Center for Advancing Translational Sciences (NCATS), 2012)
About 9,900 (2.8%) of roughly 350,000 compounds were called active. This list was built around the results that the source calls inconclusive (neither active nor inactive); the mix of calls is not that of the screen. Calls come from the whole dose curve; as a rule, active = well fitted activation curve with a large enough effect; inconclusive = small, poorly fitted or top-dose-only effect; inactive = no such curve, though single readings can be large or run the other way. Potencies of inconclusive entries are left out as doubtful fits.

experiment: A quantitative high throughput screen for small molecules that induce DNA re-replication in MCF 10a normal breast cells.; note: nearly all actives have a fitted effect of over 50% in size; details: MCF 10A DNA re-replication, Hoechst nuclear intensity, 48 h; series mostly up to 46.1 µM
Potency is the fitted concentration of half-maximal effect; tags give direction and shape of the fitted curve.

Structure (SMILES)	Potency
CS(=O)(=O)c1ccc(S(=O)CC(=O)Oc2ccc(Cl)cc2)c([N+](=O)[O-])c1 (centres undefined)	active: 4.61 µM
COc1cc(/C=C(\C#N)c2nc3ccccc3[nH]2)ccc1Oc1ccc([N+](=O)[O-])cn1	inconclusive [activator, single point]
CNC(=O)COC(=O)c1cc(-c2ccco2)nc2ccccc12	inactive
CCN(CC)c1ccc(/C=N/NC(=O)c2cc(C)nc3ccccc23)cc1	inconclusive [activator, single point]
CCCCn1c(=NC(=O)c2ccc3c(c2)OCO3)c(C#N)cc2c(=O)n3cccc(C)c3nc21	inconclusive [activator, partial curve, poor fit]
COc1cc(C2OCC3C(c4cc(OC)c(OC)c(OC)c4)OCC23)cc(OC)c1OC (centres undefined)	inconclusive [activator, full curve, poor fit]
CCc1ccc2oc(=O)cc(CN3CCN(c4ccc(F)cc4)CC3)c2c1	inconclusive [activator, partial curve, poor fit]
CCSc1nnc(-c2ccc(Cl)cc2)c2ccccc12	inactive
CCCCNC(=O)CSc1nc2cc3c(cc2c(=O)n1CCCC(=O)NCCc1ccc(OC)c(OC)c1)OCO3	inactive
CC[C@H]1OC(=O)[C@H](C)[C@@H](O[C@H]2C[C@@](C)(OC)[C@@H](O)[C@H](C)O2)[C@H](C)[C@@H](O[C@@H]2O[C@H](C)C[C@H](N(C)C)[C@H]2O)[C@](C)(OC)C[C@@H](C)C(=O)[C@H](C)[C@@H](O)[C@]1(C)O	inconclusive [activator, partial curve, poor fit]
O=C(CC1CCS(=O)(=O)C1)NC1CCCCC1 (centres undefined)	inactive
Cc1cccc(N=Cc2cc(Br)cc(Cl)c2O)c1	inconclusive [activator, single point]
Cn1ccnc1C(O)c1ccco1 (centres undefined)	inconclusive [activator, partial curve, poor fit]
CCOC(=O)c1cccc(C(=O)Oc2ccccc2)n1	active: 20.6 µM
O=C1Nc2ccc(Br)cc2C12OCCO2	inactive
CCCc1nnc(NC(=O)c2ccc(S(=O)(=O)N(C)c3ccccc3OC)cc2)s1	inconclusive [activator, single point]
CN(C)S(=O)(=O)c1ccc(C(=O)Nc2cccc(C(=O)O)c2)cc1	inactive
O=C(Cc1ccc(F)cc1)N/N=C/c1ccc(-c2ccc(Cl)c(C(=O)O)c2)o1	inconclusive [activator, partial curve, poor fit]
Cc1ccc(C)c(-c2nnc(NC(=O)Cc3ccc(F)cc3)o2)c1	inconclusive [activator, single point]
Cc1ccsc1C=Nc1ccc(O)cc1	inconclusive [activator, partial curve, poor fit]
CC(C)S(=O)(=O)C/C(N)=N/OC(=O)c1cc(Cl)cc(Cl)c1	inconclusive [activator, full curve, poor fit]
O=C(CN1CCN(c2ccccc2F)CC1)NC(=O)NC1CCCCC1	inconclusive [activator, partial curve, poor fit]
Cc1ccnc(NC(=S)NC(=O)c2cncc(Br)c2)c1	inactive

Structure (SMILES)	Potency
O=S(=O)(NC1CCCCC1N1CCN(c2ccc(F)cc2)CC1)c1ccccc1 (centres undefined)	active: 25.9 µM
O=C(CN(Cc1cccs1)C(=O)CCC(=O)Nc1nccs1)NCc1ccccc1	inconclusive [activator, full curve, poor fit]
CC(C(=O)NCc1ccccc1)N(Cc1ccccc1Cl)C(=O)c1snc(C(N)=O)c1N (centres undefined)	inconclusive [activator, partial curve, poor fit]
COc1cccc(/C(=N/O)C2CC2c2ccc(Cl)cc2)c1 (centres undefined)	inconclusive [activator, single point]
CCc1ccc(C(=O)NNc2ccc(F)cc2F)cc1	inconclusive [activator, partial curve, poor fit]
CCOc1ccc2[nH]c(=O)c(C(c3nnnn3Cc3ccco3)N3CCCC(C)C3)cc2c1 (centres undefined)	inconclusive [activator, partial curve, poor fit]
COc1ccc2c(c1)C=C(CN1CCN(Cc3ccccc3C)C(CCO)C1)CO2 (centres undefined)	inactive
O=C(CSc1nc2ncc(Cl)cc2[nH]1)c1ccc2c(c1)OCO2	inconclusive [activator, partial curve, poor fit]
Cc1ccc(C(=O)NCCSc2ccc(Cl)cc2)cc1[N+](=O)[O-]	inactive
Cc1oc(-c2cccc(Cl)c2)nc1CS(=O)(=O)CC(=O)NC1CC1	inconclusive [activator, partial curve, poor fit]
Cc1ccc2c(C)nc(SC(C(=O)c3ccccc3)c3ccccc3)nc2c1 (centres undefined)	inconclusive [activator, full curve]
CCOc1cc(C=C(C(=O)OC)C(=O)OC)ccc1OCc1ccc([N+](=O)[O-])cc1	active: 0.651 µM
CCCCOc1ccc(C(O)C(CN2CCCCC2)c2ccccc2)cc1 (centres undefined)	inconclusive [activator, single point]
COc1ccc(Nc2nc(N)nc(CN3CCN(c4ccc(F)cc4)CC3)n2)cc1	inactive
C=CCNC(=S)Nc1ccc(C)c(S(=O)(=O)N2CCCCC2)c1	inactive
Cc1ccc2ccc3ccc(C)nc3c2n1	inconclusive [activator, partial curve, poor fit]
CCOc1ccccc1N1CCN(C(=O)c2ccc(Cl)c(S(=O)(=O)N3CCCCC3)c2)CC1	inconclusive [activator, single point]
COc1ccccc1NC(=O)CN1C(=O)CC(C)S(=O)(=O)c2ccccc21 (centres undefined)	inactive
COC(=O)NCN1C(=O)C2C3C=CC(C3)C2C1=O (centres undefined)	inconclusive [activator, single point]
Cc1onc(-c2c(Cl)cccc2Cl)c1C(=O)NNc1ccccc1	inconclusive [activator, single point]
O=C(Cc1cccs1)Nc1ccc(-c2nnn(CC(=O)N3CCOCC3)n2)cc1	inconclusive [activator, single point]
COc1ccccc1NC(=O)C(=O)N/N=C/c1ccc([N+](=O)[O-])s1	inactive
COc1cccc(-c2sc3ccc(OC)cc3c2C#CCCO)c1	inconclusive [activator, full curve, poor fit]

Structure (SMILES)	Potency
COCCn1nnnc1C(c1cc2cc(C)cc(C)c2[nH]c1=O)N1CCN(c2ccccc2F)CC1 (centres undefined)	inactive
Nc1cc(C(=O)OCC(=O)Nc2cccc(S(=O)(=O)N3CCOCC3)c2)ccc1Cl	inactive
COC(=O)CSC1=C(C#N)C(c2cccc(OC)c2)CC(=O)N1 (centres undefined)	inactive
Cc1onc(-c2ccc3c(c2)OCO3)c1-c1ccc2[nH]ccc2c1	inconclusive [activator, single point]
N#Cc1nc(-c2ccccc2F)oc1N1CCCC1	inconclusive [activator, partial curve, poor fit]
Cc1sc2nc(-c3cccnc3)nc(Cl)c2c1-c1ccccc1	active: 20.6 µM
CC(C)C(NC(=O)c1ccc(F)cc1)C(=O)N1CCN(C(=O)c2ccco2)CC1 (centres undefined)	inactive
N#Cc1ccc(-c2csc(NNC(=O)c3ccccc3)n2)cc1	inactive
CC12CCC(=O)N1C(C(=O)N1CCN(S(=O)(=O)c3ccc(F)c(F)c3)CC1)CS2 (centres undefined)	inconclusive [activator, partial curve, poor fit]
O=C(NCCc1ccccc1)c1nc2c(nnn2Cc2ccccc2Cl)c(=O)[nH]1	inactive
COCCn1c(Cc2cccn2C)nnc1SCC(=O)NCc1ccc2c(c1)OCO2	inconclusive [activator, single point]
Cc1ccc(N/C(N)=N/c2nc(CSc3nnc(N)s3)cc(=O)[nH]2)cc1	inactive
Oc1ccc2c(c1)c1c3n2CCNC3CCC1 (centres undefined)	inactive
O=C(/C=C1\NC2(CCCC2)Cc2ccccc21)C(=O)N/N=C/c1ccc(O)c(O)c1	inconclusive [activator, single point]
CCN1CCN(Cc2c(O)ccc3c2O/C(=C\C=C\c2ccccc2OC)C3=O)CC1	inconclusive [activator, single point]
CC(=O)Nc1cccc(NC(=O)COc2ccc3c(c2)OCO3)c1	inactive
Cc1nn(-c2nnc(C)c(=O)[nH]2)c(C)c1SCC(=O)Nc1ccc(C(C)C)cc1	inconclusive [activator, single point]
CCCS(=O)(=O)Nc1ccc(N2CCCCC2)c(S(=O)(=O)Nc2ccccc2OC)c1	inconclusive [activator, partial curve, poor fit]
CCC1CCCCN1S(=O)(=O)c1ccc(NC(=O)c2nc(S(C)(=O)=O)ncc2Cl)cc1 (centres undefined)	inconclusive [activator, single point]
NC(=S)NN=C(Cc1ccccc1)Cc1ccccc1	inactive
Nc1nc(Cl)cc(Sc2ccc3ccccc3c2)n1	inconclusive [activator, partial curve]
O=C(C[C@@H]1C/C=C\CCC(=O)O[C@H](c2ccccc2)CNC1=O)N[C@H](CO)Cc1ccccc1	inactive
CC[C@]12c3[nH]c4ccc(Cl)cc4c3CCN1C(=O)[C@@H](CC(=O)NCc1cccc(C(F)(F)F)c1)C[C@@H]2C(=O)N1CCN(C(=O)c2ccco2)CC1	inconclusive [activator, single point]
